Laboratory results published in PMC4336329 (PLoS ONE, 2015).
Among all 310,000 compounds or so, about 2,200 (0.71%) showed an effect of 50% or more. Effects have a minus sign here. The list shows a part of the results.

The compounds below were run against human ether-à-go-go-related gene (hERG) potassium channel (human, UniProt Q12809) (assay: primary screen, population patch clamp on CHO cells stably expressing hERG).
human ether-à-go-go-related gene (hERG) potassium channel, sequence (Q12809 whole entry, looked up): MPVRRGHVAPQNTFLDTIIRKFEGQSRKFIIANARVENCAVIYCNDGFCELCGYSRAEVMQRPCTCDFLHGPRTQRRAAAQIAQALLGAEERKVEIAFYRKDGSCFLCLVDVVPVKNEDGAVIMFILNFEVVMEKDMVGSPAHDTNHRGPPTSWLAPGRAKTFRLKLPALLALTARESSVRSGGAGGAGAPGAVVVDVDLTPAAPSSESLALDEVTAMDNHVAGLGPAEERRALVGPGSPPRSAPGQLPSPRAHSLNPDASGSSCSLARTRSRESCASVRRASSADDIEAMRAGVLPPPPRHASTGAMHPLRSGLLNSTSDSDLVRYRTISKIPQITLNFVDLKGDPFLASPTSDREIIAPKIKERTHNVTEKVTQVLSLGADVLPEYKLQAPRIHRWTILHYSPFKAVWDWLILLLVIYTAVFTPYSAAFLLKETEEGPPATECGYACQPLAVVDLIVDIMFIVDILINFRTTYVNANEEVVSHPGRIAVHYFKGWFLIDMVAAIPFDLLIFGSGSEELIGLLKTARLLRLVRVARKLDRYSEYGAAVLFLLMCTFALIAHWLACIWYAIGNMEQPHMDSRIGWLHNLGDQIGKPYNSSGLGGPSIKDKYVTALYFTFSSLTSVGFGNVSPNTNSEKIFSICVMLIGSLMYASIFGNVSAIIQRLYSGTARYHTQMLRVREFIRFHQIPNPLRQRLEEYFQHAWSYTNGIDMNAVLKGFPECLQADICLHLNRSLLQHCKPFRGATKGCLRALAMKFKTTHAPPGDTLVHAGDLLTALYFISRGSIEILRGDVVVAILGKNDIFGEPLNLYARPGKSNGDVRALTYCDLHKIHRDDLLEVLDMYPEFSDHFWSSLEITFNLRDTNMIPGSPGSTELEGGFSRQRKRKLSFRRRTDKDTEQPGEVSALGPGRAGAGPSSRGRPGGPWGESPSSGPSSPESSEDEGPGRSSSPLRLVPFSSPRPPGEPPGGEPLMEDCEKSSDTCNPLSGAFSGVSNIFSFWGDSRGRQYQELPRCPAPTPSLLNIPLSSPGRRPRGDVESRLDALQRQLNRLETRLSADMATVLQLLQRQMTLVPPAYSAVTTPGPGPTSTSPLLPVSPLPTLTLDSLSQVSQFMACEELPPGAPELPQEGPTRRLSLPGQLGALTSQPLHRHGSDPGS

| SMILES | hERG current change (%, negative = inhibition) at 1uM [%] |
| --- | --- |
| COc1c(C)cc(C(=O)C2CCCN(C(=O)c3cc4nc(C)cc(C)n4n3)C2)cc1C (stereo not drawn) | 0.385 |
| O=C(O)COCC(=O)Nc1ccc2c(c1)ncn2CCc1ccccc1 | 16.4 |
| CCn1c(C)[n+](CC)c2ccc(S(=O)(=O)NC)cc21.[I-] | 14.8 |
| CC1(C)CC2CC(C)(CN2/C=N/c2sc3c(c2C#N)CC(C)(C)NC3(C)C)C1 (stereo not drawn) | 6.45 |
| O=[N+]([O-])c1ccc(S(=O)(=O)N/N=C/c2cccs2)cc1 | 13.5 |
| c1ccc(Oc2nc3ccccc3n3cccc23)cc1 | 15.6 |
| CCOC(=O)C1(Cc2ccccc2C(F)(F)F)CCN(Cc2ccon2)CC1 | 4.14 |
| Cc1ccc(C(=O)NCCC(=O)N2CCCC2)cc1 | 11.6 |
| COc1cc(SC)ccc1C(=O)NC1CCCCC1 | 2.69 |
| COc1ccc(OC)c(-c2cnc(OC(C)(C)C)nc2OC(C)(C)C)c1 | 8.65 |
| COCCn1c(C)cc(C(=O)CSc2cc(C)c3ccc(OC)cc3n2)c1C | 15.5 |
| COC(=O)Cn1c(=O)c2c(nc3n2CC(C)CN3c2ccc(C)c(C)c2)n(C)c1=O (stereo not drawn) | 16.5 |
| CCN1CCN(c2ccc(N)c(C)c2)CC1 | 0.461 |
| COc1ccc(OC)c(NCc2nnc(-c3ccccc3)o2)c1 | 16.9 |
| Cc1ccc(C)c(N2CCN(C(=O)Cc3c(C(=O)O)[nH]c4ccc(Cl)cc34)CC2)c1 | 7.62 |
| Cn1nc(C(F)(F)F)c(-c2ccc(Br)cc2)c1NC(=O)c1ccco1 | -25.2 |
| COCC(C)NC(=O)COc1nncc2ccccc12 (stereo not drawn) | 11.4 |
| COC(=O)Cc1cc(=O)[nH]c(/N=C(\N)Nc2ccc(C)cc2)n1 | 7.54 |
| CCCN1CCN(CCCNC(=O)CN2C(=O)c3cccnc3Oc3ccc(Cl)cc32)CC1 | 2.45 |

| SMILES | hERG current change (%, negative = inhibition) at 1uM [%] |
| --- | --- |
| CCOC(=O)c1cc(C#N)c(N)nc1C | 2.15 |
| CCNc1nc(OC)nc(N(OC)S(=O)(=O)c2ccc(C)cc2)n1 | 12.3 |
| CC(=O)N1CC=CC1(C)C(=O)NCc1cc(F)cc(C(F)(F)F)c1 (stereo not drawn) | 12.2 |
| CCCN1CCN(S(=O)(=O)c2ccc3c(c2)CCC(=O)N3)CC1 | 7.13 |
| c1ccc(-c2nc(C3CCCCC3)c3ccccc3n2)cc1 | 18.7 |
| C/C(=N\NC(=O)c1cccc(S(=O)(=O)N2CCCC2)c1)c1ccco1 | 16.6 |
| NC(=O)NC(=O)COC(=O)c1ccccc1OCc1ccc(F)cc1 | 10.1 |
| O=C1c2c(O)cc(O)cc2O[C@H](c2ccc(O)c(O)c2)[C@H]1O | 9.2 |
| O=C1CCc2cc(S(=O)(=O)NC3CCCCC3)cc3c2N1CC3 | 11.7 |
| CC(C)CC1(C(=O)NCCc2c[nH]c3ccccc23)C=CCN1C(=O)c1ccccc1 (stereo not drawn) | 18.4 |
| COc1ccc([N+](=O)[O-])cc1NC(=O)C(C)OC(=O)c1ccccn1 (stereo not drawn) | 7.24 |
| COc1ccccc1/C=C/C=N/Nc1cccc(C(=O)O)c1 | 17 |
| O=C(NCC1CCCO1)c1nnc(Cc2ccc(F)cc2)o1 (stereo not drawn) | 13.2 |
| COc1ccc(-n2nnnc2CNC(=O)c2ccc3ccccc3c2)cc1 | 4.76 |
| CCOC(=O)N1CCC(N2CCN(S(=O)(=O)c3ccc(Cl)cc3)CC2)CC1.O=C(O)C(=O)O | -4.5 |
| CC(=O)Nc1ccc(S(=O)(=O)NCCS(=O)(=O)N2CCN(c3ccccc3F)CC2)cc1 | 13 |
| CC1CCN(C(=S)NC2CCCCC2)CC1 | -3.23 |
| Cc1cc(C)cc(OC(=O)CS(=O)c2ccc(C(F)(F)F)cc2[N+](=O)[O-])c1 (stereo not drawn) | 1.21 |
| Cc1ccccc1Nc1ccc2nonc2c1[N+](=O)[O-] | 8.57 |

| SMILES | hERG current change (%, negative = inhibition) at 1uM [%] |
| --- | --- |
| COc1ccccc1-c1nnc(NC(=O)CCS(=O)(=O)c2ccccc2)o1 | 15.6 |
| Cc1nc([N+](=O)[O-])cn1CC(=O)c1ccc(Br)cc1 | 16.3 |
| COCCCNC(=O)C1CC(=O)N(Cc2ccc(OC)cc2)C1 (stereo not drawn) | 19.3 |
| O=C(NCCN1C(=O)S/C(=C/c2cccnc2)C1=O)C1CC(=O)N(Cc2ccccc2)C1 (stereo not drawn) | 5.09 |
| CC(C)c1ccc(CN(C(=O)c2ccco2)C2CCS(=O)(=O)C2)cc1 (stereo not drawn) | 12.6 |
| O=S(=O)(NC(=NC1CCCC1)C(F)(F)F)c1ccccc1 | 3.54 |
| CCC(CC)NCC(O)COc1ccc(Br)cc1.O=C(O)C(=O)O (stereo not drawn) | -3.02 |
| COc1ccccc1C(=O)N/N=C/c1c[nH]c2ccccc12 | 8.55 |
| O=C(COC(=O)c1cc([N+](=O)[O-])ccc1N1CCOCC1)Nc1ccc(Cl)cn1 | -8.14 |
| COc1ccccc1NC(=O)CSc1nnc(-c2ccc(NC(C)=O)cc2)n1C | 5.8 |
| Cc1cc(C)cc(OCc2nnc(SCC(=O)Nc3ccccc3)o2)c1 | -5.69 |
| COc1ccc(/C=N/NC(=O)COc2cc(C)cc(C)c2)cc1COC(C)=O | 3.16 |
| N/C(=N\OC(=O)CCC1CCCC1)c1ccccn1 | 1.29 |
| CN1CCN(C(=O)c2ccc3c(c2)N(C)C(=O)/C(=C/c2cccc(Cl)c2)S3)CC1 | 15.8 |
| Cc1cccc(C(=O)N2CCC(c3nc4ccccc4s3)CC2)c1 | 1.54 |
| CCOC(=O)c1sc2nc(C)n(CC(=O)NCC3CCCO3)c(=O)c2c1C (stereo not drawn) | 8.04 |
| CNc1nc2c3ccccc3n(C(C)=O)c2s1 | 4.27 |
| c1ccc2c(NC3C4CC5CC(C4)CC3C5)nc(N3CCOCC3)nc2c1 (stereo not drawn) | 6.13 |
| Cc1ccc(C(=O)N2CCN(c3ccccn3)CC2)cc1Cl | 6.33 |
